{"source": "the antibiotic and cytotoxicity screens of Wong et al. (2023)", "note": "Some of the results follow.", "data": [{"tested_on": "HSkMC (human skeletal muscle cells)", "test": "cytotoxicity call (relative viability < 0.9)", "settings": "10 µM", "values": [{"smiles": "CO[C@@H]1CN(C)C(=O)c2ccc(NC(=O)CN(C)C)cc2OC[C@@H](C)N(C(=O)c2ccncc2)C[C@H]1C", "cytotoxicity call": "inactive"}, {"smiles": "COc1ccc2c3c(n(c2c1)C)[C@H](CO)N(Cc1cc(cc(c1)OC)OC)C[C@]13CCN(CC1)S(=O)(=O)c1cn(cn1)C", "cytotoxicity call": "inactive"}, {"smiles": "CN(C)CCN1CCc2ncc(Cn3cncn3)n2CC1", "cytotoxicity call": "inactive"}, {"smiles": "C[C@H](CO)N1C[C@H](C)[C@H](CN(C)Cc2ccc(C(=O)O)cc2)Oc2c(NC(=O)c3ccncc3)cccc2C1=O", "cytotoxicity call": "inactive"}, {"smiles": "C[C@@H]1CCCCO[C@@H](CN(C)C(=O)Nc2cccc3ccccc23)[C@H](C)CN([C@H](C)CO)C(=O)c2cc(NS(=O)(=O)c3ccccc3)ccc2O1", "cytotoxicity call": "inactive"}, {"smiles": "C[C@@H]1CCCCO[C@H](CN(C)S(=O)(=O)c2cccs2)[C@H](C)CN([C@@H](C)CO)C(=O)c2cc(NC(=O)C3CCCCC3)ccc2O1", "cytotoxicity call": "inactive"}, {"smiles": "C[C@H]1CN([C@@H](C)CO)C(=O)Cc2cc(NS(=O)(=O)c3ccc(Cl)cc3)ccc2O[C@@H]1CN(C)C(=O)Nc1cccc2ccccc12", "cytotoxicity call": "inactive"}, {"smiles": "Cc1noc(C)c1S(=O)(=O)Nc1ccc2c(c1)C(=O)N([C@@H](C)CO)C[C@H](C)[C@H](CN(C)C)OCCCC[C@H](C)O2", "cytotoxicity call": "inactive"}, {"smiles": "CC(C)(C)[S@@](=O)N1Cc2cc(C(=O)NCCN3CCCCC3)nc(-c3cccc(-c4ccc(C#N)cc4)c3)c2[C@H]1CCO", "cytotoxicity call": "inactive"}, {"smiles": "CO[C@@H]1CN(C)C(=O)c2cc(NS(=O)(=O)CC(F)(F)F)ccc2OC[C@H](C)N(C(=O)c2ccc3c(c2)OCO3)C[C@H]1C", "cytotoxicity call": "inactive"}, {"smiles": "COc1ccc(NC(=O)N2C[C@H](O)COC[C@@H]3O[C@@H](CC(=O)NC4Cc5ccccc5C4)CC[C@H]32)cc1", "cytotoxicity call": "inactive"}, {"smiles": "Cc1cc(C(=O)Nc2cccc3c2O[C@H](CN(C)S(=O)(=O)c2cn(C)cn2)[C@H](C)CN([C@H](C)CO)C3=O)n(C)n1", "cytotoxicity call": "inactive"}, {"smiles": "C[C@@H]1CN([C@H](C)CO)C(=O)c2cc(C#CCN(C)C)cnc2O[C@H]1CN(C)C(=O)CN1CCOCC1", "cytotoxicity call": "inactive"}, {"smiles": "Cc1c(O)c(=O)ccn1C", "cytotoxicity call": "inactive"}, {"smiles": "CCN(CC)C(=O)c1ccc(O)c(OC)c1", "cytotoxicity call": "inactive"}, {"smiles": "O=C(C[C@@H]1CC[C@@H](NC(=O)c2ccc(F)cc2)[C@@H](CO)O1)NCc1ccncn1", "cytotoxicity call": "inactive"}, {"smiles": "C[C@@H]1CN([C@H](C)CO)C(=O)c2cc(NC(=O)Nc3ccc4c(c3)OCO4)ccc2O[C@@H](C)CCCCO[C@@H]1CN(C)Cc1ccc(Cl)c(Cl)c1", "cytotoxicity call": "inactive"}, {"smiles": "CC(C)NC(=O)Nc1ccc2c(c1)C(=O)N([C@H](C)CO)C[C@H](C)[C@H](CN(C)Cc1ccc(Cl)c(Cl)c1)OCCCC[C@H](C)O2", "cytotoxicity call": "inactive"}, {"smiles": "CC[C@@H](C)NCCCCOc1ccc(Cl)cc1C(C)(C)C", "cytotoxicity call": "active"}, {"smiles": "Cc1noc(C)c1NC(=O)Nc1cccc2c1O[C@H](CN(C)C(=O)Nc1ccc(C(F)(F)F)cc1)[C@@H](C)CN([C@@H](C)CO)C2=O", "cytotoxicity call": "inactive"}, {"smiles": "COCC#Cc1ccc([C@H]2[C@H](CO)N3C(=O)CN(C(=O)C4CCOCC4)C[C@@H]23)cc1", "cytotoxicity call": "inactive"}, {"smiles": "C[C@@H]1CCCCO[C@H](CN(C)C(=O)Nc2ccccc2)[C@H](C)CN([C@H](C)CO)C(=O)c2cc(NC(=O)Nc3ccc(F)cc3)ccc2O1", "cytotoxicity call": "inactive"}, {"smiles": "O=C(C[C@@H]1CC[C@H]2NC[C@H](O)COC[C@@H]2O1)NCCN1CCCC1", "cytotoxicity call": "inactive"}, {"smiles": "C[C@H]1CN([C@@H](C)CO)C(=O)c2cc(NS(=O)(=O)c3cn(C)cn3)ccc2O[C@@H]1CN(C)C(=O)Nc1ccccc1", "cytotoxicity call": "inactive"}, {"smiles": "Fc1cc2ccncc2cc1Cl", "cytotoxicity call": "inactive"}, {"smiles": "COc1ccc(NC(=O)Nc2ccc3c(c2)C(=O)N([C@@H](C)CO)C[C@@H](C)[C@@H](CN(C)C(=O)CCC(F)(F)F)OCCCC[C@H](C)O3)cc1", "cytotoxicity call": "inactive"}, {"smiles": "C[C@H]1CN([C@@H](C)CO)C(=O)c2cccc(NC(=O)NC3CCCCC3)c2O[C@@H]1CN(C)S(=O)(=O)c1cn(C)cn1", "cytotoxicity call": "inactive"}, {"smiles": "C#CCN1C(=O)C[C@H](O)C1=O", "cytotoxicity call": "inactive"}, {"smiles": "CC(C)NC(=O)Nc1cccc2c1O[C@@H](CN(C)C(=O)Nc1ccc3c(c1)OCO3)[C@@H](C)CN([C@H](C)CO)C2=O", "cytotoxicity call": "inactive"}, {"smiles": "CC[C@@H](N)C12CC3CC(CC(C3)C1)C2", "cytotoxicity call": "inactive"}, {"smiles": "COc1ccc(C[C@@H](N)C(=O)N[C@@H]2[C@@H](O)[C@@H](n3cnc4c(N(C)C)ncnc43)O[C@@H]2CO)cc1", "cytotoxicity call": "active"}, {"smiles": "C[C@@H]1CN([C@@H](C)CO)C(=O)c2cc(NS(=O)(=O)c3ccccc3)ccc2O[C@@H](C)CCCCO[C@@H]1CN(C)Cc1ccc(C(=O)O)cc1", "cytotoxicity call": "inactive"}, {"smiles": "C[C@@H]1CN([C@@H](C)CO)C(=O)c2cc(NC(=O)CCC(F)(F)F)ccc2O[C@@H]1CN(C)Cc1ccc(C(F)(F)F)cc1", "cytotoxicity call": "inactive"}, {"smiles": "Cc1noc(C)c1NC(=O)Nc1ccc2c(c1)C(=O)N([C@H](C)CO)C[C@H](C)[C@H](CN(C)S(=O)(=O)c1cccs1)OCCCC[C@H](C)O2", "cytotoxicity call": "inactive"}, {"smiles": "C[C@@H]1CCCCO[C@@H](CN(C)C(=O)Nc2cccc3ccccc23)[C@@H](C)CN([C@H](C)CO)C(=O)c2cc(NC(=O)Nc3ccccc3)ccc2O1", "cytotoxicity call": "inactive"}, {"smiles": "C[C@H]1CCCCO[C@@H](CN(C)C(=O)Nc2ccc(C(F)(F)F)cc2)[C@@H](C)CN([C@@H](C)CO)C(=O)c2cc(NS(C)(=O)=O)ccc2O1", "cytotoxicity call": "inactive"}, {"smiles": "COc1ccc2c3c(n(c2c1)C)[C@H](CO)N(C[C@]13CN(C1)C(=O)CN(C)C)C(=O)CN(C)C", "cytotoxicity call": "inactive"}, {"smiles": "COc1ccc(CN(C)C[C@H]2Oc3ccc(NS(=O)(=O)c4c(C)noc4C)cc3C(=O)N([C@H](C)CO)C[C@H]2C)cc1", "cytotoxicity call": "inactive"}, {"smiles": "C[C@H](CO)N1C[C@H](C)[C@@H](CN(C)C(=O)CN(C)C)Oc2cc(-c3ccc(C#N)cc3)ccc2S1(=O)=O", "cytotoxicity call": "inactive"}, {"smiles": "COc1ccc(S(=O)(=O)N(C)C[C@H]2OCCCC[C@H](C)Oc3ccc(NS(C)(=O)=O)cc3C(=O)N([C@@H](C)CO)C[C@@H]2C)cc1", "cytotoxicity call": "inactive"}]}]}
